# The campaign covered roughly 52,000 compounds. About 4,300 (8.3%) were called active. Cut-off read from the data, not from the text of the source: active = survival mostly below about 52% (no sharp cut-off); inactive = mostly above about 56%. The list shows a part of the results.
# System: DeltatarO mutant
# Assay: S. aureus survival, RN4220 and DeltatarO strains – OD600, teichoic acid synthesis inhibitors, primary screen (AID 463173)
# Conditions: S. aureus RN4220 wild type/DeltatarO growth, OD600, 18 h, active compounds read low, screened at 18.75 µg/mL (by protocol)
row,SMILES,survival
1,CC(=O)c1ccc(NC(=O)Cn2c(=O)nc(-c3ccccc3)c3ccccc32)cc1,inactive: 101%
2,COc1cc(NC(=O)COCc2cc(-c3ccc4c(c3)OCO4)on2)c(OC)cc1Cl,inactive: 103%
3,CCOc1ccc(C(=O)c2cn(CC(=O)Nc3ccc(C)c(Cl)c3)c3ccc(OCC)cc3c2=O)cc1,inactive: 72%
4,CCCCN(CC)CCCNC(=O)c1ccc2c(c1)N(Cc1ccc(C)cc1)C(=O)c1ccccc1S2,inactive: 94%
5,CCCCC(=O)OCc1cc(=O)n2nc(C3CC3)sc2n1,inactive: 102%
6,O=C(NC1(C(F)(F)F)N=C(c2ccccc2)N(Cc2ccccc2)C1=O)c1ccc(F)cc1 (stereo not given),inactive: 67%
7,Cc1cc(-c2ccc(C)c(S(=O)(=O)Nc3ccc(C)c(N(C)C)c3)c2)on1,inactive: 99%
8,CCOc1ccc(CCNC(=O)c2cc3n(n2)CCCN(Cc2ccc(C)cc2)C3=O)cc1OCC,inactive: 112%
9,COc1ccc(-c2nnn(CC(=O)N(Cc3ccco3)C(C(=O)NCC3CCCO3)c3ccco3)n2)cc1 (stereo not given),inactive: 89%
10,Cc1nnc(N2CCCC(C(=O)Nc3cc(F)ccc3F)C2)c2nn(-c3ccccc3)c(C)c12 (stereo not given),inactive: 83%
11,CCCN1CCN(c2ncnc3sc(C(=O)Nc4ccc(OC(F)(F)F)cc4)c(C)c23)CC1,inactive: 75%
12,CC1CCN(c2nc3ccccc3nc2SCC(=O)Nc2ccccc2C(C)C)CC1,active: -1%
13,O=c1c2sc3ccccc3c2n(Cc2cccc(Cl)c2)c(=O)n1Cc1ccc(F)cc1,active: 68%
14,Cc1ccccc1CN1C(=O)C(O)(c2c[nH]c3ccccc23)c2cc(Cl)ccc21 (stereo not given),active: -2%
15,COc1cccc(CNC(=O)C2CCCN(c3nn4cc(-c5ccc(C)cc5)nc4s3)C2)c1 (stereo not given),inactive: 95%
16,O=C(c1ccc2c(c1)N(Cc1ccccc1)C(=O)c1ccccc1S2(=O)=O)N1CCC(Cc2ccccc2)CC1,inactive: 87%
17,Cc1cc(C)c(NC(=O)Cn2nnc3sc4c(c3c2=O)CCC(C(C)(C)C)C4)c(C)c1 (stereo not given),inactive: 49%
18,COc1cc(C2c3c(-c4ccccc4O)n[nH]c3C(=O)N2Cc2ccncc2)cc(OC)c1OC (stereo not given),inactive: 82%
19,N#Cc1c(NC(=O)c2ccco2)sc2c1CCCC2,inactive: 98%
20,CCCCN1C(C(=O)c2ccccc2)=C(OC(=O)CC)c2ccccc2S1(=O)=O,active: -4%
21,Cc1nc2cc3ccccc3cc2c(=O)[nH]1,active: 47%
22,C/C(=N\NC(=O)C(F)(F)F)c1ccccc1O,inactive: 101%
23,Cn1cnc(S(=O)(=O)N2CCC(C(=O)Nc3ccc(OC(F)(F)F)cc3)CC2)c1,inactive: 92%

row,SMILES,survival
1,CCN(CC)c1cc(NC2CCCCC2)c2c3c(onc13)-c1ccccc1C2=O,active: 1%
2,CC1CCN(S(=O)(=O)c2ccc3c(c2)N(CC(=O)N(C)Cc2ccccc2)C(=O)CO3)CC1,inactive: 70%
3,COc1ccccc1N1CCN(c2c3c(nc4nncn24)CCC3)CC1,inactive: 73%
4,CC(C)(C)NC(=O)Cn1cc(S(=O)(=O)Cc2ccccc2Cl)c2ccccc21,inactive: 77%
5,Cc1cccc(-n2c(=O)c3c(c4cc(C)ccc4n3C)n(CC(=O)Nc3ccc(C)c(C)c3)c2=O)c1,inactive: 81%
6,Cc1nnc(SCCNS(=O)(=O)c2ccccc2)s1,inactive: 81%
7,N#C/C(=C\Nc1ccccc1O)c1nc2ccccc2o1,active: 1%
8,COC(=O)c1sccc1S(=O)(=O)N(CC(=O)NCc1ccc(F)cc1)c1ccccc1,inactive: 73%
9,Cc1cccc(NC(=O)Cn2c(=O)n(Cc3nc(-c4ccccc4)no3)c(=O)c3ccccc32)c1,inactive: 94%
10,COc1ccc(CNC(=O)C2CCN(C(=O)N3CCOc4ccc(C)cc43)CC2)cc1,inactive: 85%
11,CC1CCCN(C(=O)c2ccc(CSc3nc4ccncc4n3Cc3ccccc3)cc2)C1 (stereo not given),inactive: 101%
12,O=C(NCc1ccc(Cl)cc1)c1cc2cccc3c2n1CCS3,inactive: 83%
13,COc1ccc(NC(=O)N2CCN(Cc3nc4ccc(C)cc4o3)CC2)cc1OC,inactive: 82%
14,CCCCNC(=O)CN1CCN(c2ccc(NC(=O)c3ccc(OC)cc3)cc2C(=O)O)CC1,inactive: 85%
15,CN(C)c1ccc(-c2nnc(-c3cccnc3)o2)cc1,inactive: 103%
16,COc1ccc(-c2c(C#N)c(SCC(=O)Nc3ccc(C)c(C)c3)nc(C)c2C(=O)Nc2ccccc2)cc1OC,inactive: 75%
17,Cc1ccc(N(C)S(=O)(=O)c2nnc(NC(=O)c3ccco3)s2)cc1,inactive: 57%
18,C=C(C)CC1N(CCc2ccccc2)C(=O)C2C(C(=O)O)C3C=CC21O3 (stereo not given),inactive: 108%
19,COc1ccc(C)cc1NS(=O)(=O)c1ccc2c(c1)CCCN2C(C)=O,inactive: 135%
20,CCOC(=O)Cn1c(=N)n(CCOc2ccc(OC)cc2)c2ccccc21,active: 43%
21,COc1ccc(-c2nc(SCC(=O)NCC3CCCO3)c(-c3ccc(C)cc3)[nH]2)cc1OC (stereo not given),inactive: 66%
22,COc1cccc(CNC(=O)Cc2c(C)c3cc4c(C)coc4cc3oc2=O)c1,inactive: 61%
23,COc1cccc(NC(=O)c2csc3c2CCCCC3)c1,active: 37%

row,SMILES,survival
1,CCc1ccc(NC(=O)N2CCN(c3nnc(C)c4c(C)n(-c5ccc(Cl)cc5)nc34)CC2)cc1,inactive: 117%
2,COCCn1c(CCC(=O)Nc2ccc(OC)c(OC)c2)nc2cccnc21,inactive: 94%
3,O=C(NCc1ccccc1Cl)c1cc(-c2ccccc2)n[nH]1,inactive: 95%
4,O=C(CS(=O)(=O)c1nc(-c2ccc(Cl)cc2)cn1-c1ccccc1)Nc1cccc(Cl)c1,inactive: 68%
5,O=C(Cn1c2ncccc2c(=O)n1-c1ccccc1)NCc1ccccc1,inactive: 67%
6,Cc1ccc(NC(=O)CSc2nc(C)cc(C)c2C#N)cc1,inactive: 94%
7,COc1cccc(C(=O)CS)c1,inactive: 100%
8,Cc1ccc(NC(=O)c2ccc(F)c(S(=O)(=O)NCCc3ccccc3)c2)cc1F,inactive: 97%
9,CCOc1ccc(NC(=O)CSc2nc(-c3ccccc3)c3cc(OCC)ccc3n2)cc1,inactive: 73%
10,CN1C(=O)c2ccccc2N(C)C1c1ccc(F)cc1 (stereo not given),inactive: 96%
11,O=C(NCc1ccccc1Cl)C(=O)NCC(c1ccc2c(c1)OCO2)N1CCOCC1 (stereo not given),inactive: 83%
12,COc1ccc(CNC(=O)c2cnc3sc4cc(OC)ccc4n3c2=O)cc1,inactive: 77%
13,CCC(CC)C(=O)N1CCc2cc(OC)c(OC)cc2C1COc1ccc2c(C)cc(=O)oc2c1 (stereo not given),inactive: 83%
14,O=C(CSc1nc2ccccc2c(=O)n1Cc1ccco1)OC1CCCCC1,inactive: 71%
15,O=C(c1cc(S(=O)(=O)N2CCCC2)c[nH]1)N1CCN(c2cccc(Cl)c2)CC1,inactive: 98%
16,CCOc1ccc2nc(N(Cc3cccnc3)C(=O)c3ccco3)sc2c1,inactive: 88%
17,CN(CC(=O)N1CCCC1=O)Cc1ccccc1,inactive: 64%
18,Cc1ccc(CNCc2ccc3c(c2)n(C)c(=O)n3C)cc1,inactive: 92%
19,CCN1C(=O)SC(CC(=O)O)C1=O (stereo not given),inactive: 88%
20,O=C(CCNS(=O)(=O)c1ccc(Br)s1)Nc1ccc(Br)cc1,active: 40%
21,CCN1C(=O)c2ccccc2Sc2ccc(NC(=O)Cc3ccc(OC)c(OC)c3)cc21,inactive: 80%
22,COc1ccc2c(c1)c(=O)c(S(=O)(=O)c1ccc(F)cc1)cn2CC(=O)Nc1ccc(C)cc1C,inactive: 82%
23,COc1cc(NS(=O)(=O)c2ccc(NC(=O)COc3ccc(Cl)cc3Cl)cc2)nc(OC)n1,inactive: 77%

row,SMILES,survival
1,CCOc1cccc(CC(=O)NCc2ccc3c(c2)CCN3C(=O)c2cccc(C)c2)c1OCC,inactive: 54%
2,COc1ccc(CN(C(=O)Nc2cc(C)ccc2C)C2CCN(C(C)=O)CC2)cc1,inactive: 87%
3,COc1ccc(C2C(C(=O)Nc3cccnc3)=C(C)Nc3nc(-c4ccc(OC)c(OC)c4)nn32)cc1 (stereo not given),inactive: 150%
4,O=C(Nc1cc(Cl)ccc1O)c1cc(-c2ccc3c(c2)OCO3)on1,inactive: 58%
5,CCOC(=O)c1c(C)[nH]c(CCC(=O)NCc2cc(Br)ccc2OC)c1C,inactive: 115%
6,Cc1c(C(=O)N2CCCC2)oc2c1-c1nn(CC(=O)NCc3ccccc3F)cc1CC2,inactive: 75%
7,CCCSc1ncc(Cl)c(C(=O)NCc2ccc(C)cc2)n1,inactive: 57%
8,COc1ccc(CNC(=O)CCS(=O)(=O)c2cc3c4c(c2)CCN4C(=O)CC3)cc1OC,inactive: 66%
9,Cc1cc(Cl)ccc1NC(=O)CCS(=O)(=O)c1ccc2c(c1)CC(C)N2C(=O)C1CC1 (stereo not given),inactive: 126%
10,CCCCCc1nc2ccccc2c(=O)n1N,inactive: 93%
11,CC(C)NC(=O)C1=CC(c2ccc3c(c2)OCO3)=NS(=O)(=O)N1C,inactive: 86%
12,COc1ccccc1CNC(=O)c1cc2cccc3c2n1CCS3,inactive: 99%
13,CCc1nn2c(=O)c(S(=O)(=O)Nc3ccc(C)cc3C)c(C)nc2s1,inactive: 68%
14,COc1ccc(-c2nc(CSCC(=O)NCCc3ccc(OC)c(OC)c3)c(C)o2)cc1,inactive: 79%
15,CCN(C(=O)CSc1nnc(-c2ccccc2Br)o1)c1nc(C)cs1,inactive: 71%
16,Cc1ccc(S(=O)(=O)c2nnn3c2nc(N(C)Cc2ccccc2)c2cc(Cl)ccc23)cc1C,inactive: 108%
17,CCCOc1ccc(C(=O)N(Cc2ccc(Cl)cc2)Cc2ccco2)cc1,inactive: 50%
18,Cc1cn2c(=O)cc(COC(=O)COc3ccc(C)c(C)c3)nc2s1,inactive: 67%
19,O=C(c1ccccc1)N1CCC(c2nc3ccccc3[nH]2)CC1,inactive: 86%
20,COc1cc(NC(=O)CCS(=O)(=O)c2ccc(Br)cc2)cc(OC)c1,inactive: 102%
21,Cc1ccc(CNC(=O)c2ccc3c(c2)NC(=O)C(CS(=O)(=O)Cc2cccc(C)c2)N3)cc1 (stereo not given),inactive: 135%
